# Laboratory results taken from PubChem BioAssay AID743279 (National Center for Advancing Translational Sciences (NCATS), 2014).
# Among all 360,000 compounds or so, about 17,000 (4.7%) were called active. Inconclusive means that the source gave no clear call. Such entries were picked first, then a sample of the others. No stated cut-off is given here; in the data, active means activity change below about -50%; inconclusive means mostly about -30% to -49%; inactive means weaker than that.
# Test: qHTS for Inhibitors of Inflammasome Signaling: IL-1-beta AlphaLISA Primary Screen
# Details: THP-1 LPS/ATP IL-1B secretion, 16 h; at 57.5 µM, stronger effect = lower value
# How it was run: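 Secreted IL-1B measured by AlphaLISA bead assay after 16 h compound exposure of THP-1 cells; compounds (final up to 57.5 uM) added 1 h before LPS (250 ng/mL) and ATP (1.25 mM) stimulation; lower signal means less secretion.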
# On the % scale 0 is the no-effect control and ±100 the full control effect.
row,Structure (SMILES),activity change
1,CCCS(=O)(=O)N1CCN(CCN2C(=O)c3cccc4cccc(c34)C2=O)CC1,inconclusive: -31.3%
2,COc1ccccc1OCCn1c(=O)sc2ccccc21,inactive: -10.6%
3,CC(Oc1ccc(Br)cc1Cl)C(=O)Nc1ccncc1 (stereo not given),inconclusive: -42.7%
4,Cc1cccn2cc(CSc3nnc(Nc4ccc(C(C)C)cc4)s3)nc12,inactive: -19.6%
5,CCCN(CCC)C(=O)c1ccc2c(c1)OCO2,inactive: 4.88%
6,C=CCn1c(SC(F)F)nc2scc(-c3ccco3)c2c1=O,inconclusive: -49.2%
7,COC(=O)c1ccc(NC(=O)Nc2ccc(OC)cc2)cc1,inconclusive: -34.4%
8,CCc1nc2ccc(C(=O)NCCN3CCCC3)cn2c1N(C)Cc1ccc(OC)cc1,inconclusive: -35.6%
9,c1cc(C2CCCCC2)ccc1Oc1nc(N2CCOCC2)nc(N2CCOCC2)n1,inactive: 9.92%
10,CCOc1ccc2nc(N3C(=O)CNC3=S)sc2c1,active: -96.8%
11,COc1ccc(N(Cc2ccccc2)S(=O)(=O)c2cccc(C(=O)Nc3ncccc3C)c2)cc1,inactive: -5.43%
12,COC(=O)C1=NN(N=O)C2(CC(=O)N(c3cc(C)cc(C)c3)C2=O)C1 (stereo not given),inconclusive: -30.2%
13,COc1ccc(NC(=O)N2CCCc3ccccc32)c(OC)c1,inconclusive: -45.1%
14,COc1ccccc1NS(=O)(=O)c1cc(N/C(=N/S(=O)(=O)c2ccccc2)c2ccc(F)cc2)ccc1Cl,inconclusive: -40.1%
15,CN1CCN(C2Cc3cc(F)ccc3Sc3ccc(Cl)cc32)CC1 (stereo not given),inconclusive: -43.8%
16,O=C(Nc1ccccc1)C1Cc2c(-c3ccc4c(c3)OCO4)ccnc2O1 (stereo not given),inconclusive: -38.9%
17,Cc1ccc(-c2noc(CSc3nnc(Cc4ccccc4)n3-c3cccc(C)c3)n2)cc1,inconclusive: -38.3%
18,CCOC(=O)c1sc(NC(=O)c2cccs2)cc1C,inconclusive: -31.1%
19,CC(=O)c1ccc2noc(-c3ccccc3)c2c1,inconclusive: -30.7%
20,O=C1Nc2cc(C(=O)N3CCC(N4CCCCC4)CC3)ccc2S/C1=C\c1ccccc1,inconclusive: -43.9%
21,Cc1cccc(N=C2C(=O)Nc3c(Cl)cccc32)c1,inactive: 19.2%
22,CC(=NNS(=O)(=O)c1ccc(C)cc1)c1ccncc1,inconclusive: -40.4%
23,O=C(NC1CCCc2c1cnn2-c1ccccc1F)c1ccccc1N1CCOCC1 (stereo not given),inconclusive: -42%
24,O=C(Nc1cccc(F)c1)C1CCN(c2nnnn2-c2ccccc2)CC1,inconclusive: -30.2%
25,Cc1nnc(SCC(=O)Nc2cccc(C(F)(F)F)c2)[nH]c1=O,inactive: 14.8%
26,CCN1CCCC1CN(Cc1cc2ccc(C)c(C)c2[nH]c1=O)C(=O)Nc1ccccc1OC (stereo not given),inconclusive: -31.2%
27,CCOc1ccc2[nH]c(=O)c(CN(Cc3ccco3)C(CC)c3nnnn3Cc3ccccc3)cc2c1 (stereo not given),inconclusive: -42%
28,COc1ccc(NC(=O)c2cc(C)nc3ccccc23)cc1S(=O)(=O)Nc1ccccc1Cl,inactive: 18.4%

row,Structure (SMILES),activity change
1,Cc1cc(-c2nc3ncccc3o2)ccc1NC(=O)CC(C)C,inconclusive: -32.5%
2,Cc1ccccc1-c1nn(-c2ccccc2)cc1C(=O)NCC(c1ccco1)N1CCCC1 (stereo not given),inconclusive: -30.4%
3,CC(OC(=O)CCc1nc2ccccc2c(=O)[nH]1)C(=O)Nc1ncc(Cl)cc1Cl (stereo not given),active: -76.7%
4,COc1cc(/C=C/c2cccc[n+]2C)ccc1OCC(=O)Nc1cccc(Cl)c1,active: -71.1%
5,COc1cccc(/C=C2\SC(=S)N(CCC(=O)NC3C=CS(=O)(=O)C3)C2=O)c1 (stereo not given),active: -67.3%
6,Oc1ccc(/C=N/NC(=S)Nc2cccnc2)c(O)c1,active: -65.3%
7,COc1ccc(/C=N/n2c(N)nc(-c3ccccc3)c2-c2ccccc2)cc1,inconclusive: -49.3%
8,CCCN(CCC)CCN1C(=O)C2C(C(=O)Nc3ccc(C)cc3)C3C=CC2(O3)C1C(=O)NC1CCCCC1 (stereo not given),inconclusive: -41.6%
9,CCN(CC(=O)Nc1c(F)cccc1F)C(=O)CC1CCCCC1,inactive: 10.3%
10,COc1ccc(CCNC(=O)Nc2ccc([N+](=O)[O-])cc2)cc1OC,inconclusive: -34.6%
11,CCOc1ccc2[nH]c3c(c2c1)CNCC3,inconclusive: -44.2%
12,Oc1ccc(-c2cnns2)c(O)c1,inconclusive: -44.7%
13,CCNc1c(NC(=O)C2CCC(C)CC2)c(=O)oc2ccccc12 (stereo not given),inactive: 55.3%
14,CCOC(=O)N1CCC(n2c(SCC(=O)N3CCC(C)CC3)nc3ccccc3c2=O)CC1,inconclusive: -44%
15,O=C(CN1c2ccccc2Sc2ccccc21)NNC(=O)Nc1ccc(Cl)cc1,active: -80.1%
16,O=C(NCc1ccccc1CN1CCCC1)c1ccc(S(=O)(=O)Nc2ccccc2)cc1,inconclusive: -45.7%
17,CCn1c(C)cc(C(=O)CSc2nnc(C3CC3)n2C2CC2)c1C,inconclusive: -43.7%
18,CCc1ccc(N(C2C=CS(=O)(=O)C2)S(=O)(=O)c2ccccc2)cc1 (stereo not given),inconclusive: -38.5%
19,CC(C)(C)OC(=O)CNC(=O)c1[nH]cnc1C(=O)N[C@@H](CCCCNC(=O)OC(C)(C)C)C(=O)OC(C)(C)C,inconclusive: -43%
20,Nc1c(C(=O)NC2CCCC2)c2nc3ccccc3nc2n1/N=C/c1cccnc1,inactive: -15.7%
21,CSc1nc2ccc(NC(=O)c3nn(C(C)C)c(=O)c4ccccc34)cc2s1,active: -52.1%
22,CCOC(=O)N1CCN(C(=O)c2ccc3c(=O)n(CCC4=CCCCC4)c(=O)[nH]c3c2)CC1,inconclusive: -35.1%
23,CCCCNC(=O)C(C)N(CCN(C)C)C(=O)CCCN1C(=O)NC(c2ccc(Cl)cc2)C(C(=O)OCc2ccccc2)=C1C (stereo not given),inconclusive: -42.5%
24,Cc1ccc(C(=O)NCC(=O)O)o1,inactive: -1.84%
25,O=C(NCc1ccco1)c1ccc(COc2ccccc2Cl)cc1,active: -57.4%
26,COc1ccc([N+](=O)[O-])cc1NC(=O)c1ccc(CN(c2ccc(C)c(C)c2)S(C)(=O)=O)cc1,inconclusive: -32.3%
27,O=C1N[C@H](Cc2ccccc2)COC(=O)[C@@H](Cc2ccc(F)cc2)CC/C=C/C[C@H]1CC(=O)N(CCO)Cc1ccccc1,inconclusive: -40.8%
